Results as given in the supplement of paper PMC3334620.
The full ranking holds about 33,000 sequences; the median of “E-score (-0.5 to 0.5)” is about -0.01, and the highest 2% start at about 0.26. This is one part of the list.

Target: Ste12 (UniProt P13574)
Test: PBM E-score (8-mer binding enrichment) (E-score (-0.5 to 0.5)); higher = stronger / more preferred TF binding; most listed sequences are background and not binding sites
Conditions: protein concentration: 200 nM; construct: GST-DNA-binding domain
How it was run: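 Each ungapped eight-base word and its reverse complement, pooled, received an E-score from the Universal PBM Analysis Suite. Underlying scans, normalised with masliner, recorded fluorescent anti-GST bound to GST-tagged yeast transcription factors. These were applied at about 100-200 nM to universal all-10-mer Agilent arrays double-stranded by primer extension.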

First: AAGCATAG
Second: ACAGTTGG
The “PBM E-score” value of the first is lower: -0.152 for the first, -0.0275 for the second.

Going from AATGTTTG to GATGGAAC, the “PBM E-score” value falls from 0.0124 to -0.0989.

Compared with GCCTAGTA, AGAGTTAC is lower in “PBM E-score” value: -0.0783 for the first, -0.193 for the second.

Compared with CATTATAA, GCAAATAC is lower in “PBM E-score” value: 0.12 for the first, 0.0478 for the second.

First: AATGCTCT
Second: CCCTCCTA
The “PBM E-score” value of the first is lower: -0.0497 for the first, 0.156 for the second.

Going from ATATCGAG to ACGAAGCA, the “PBM E-score” value rises from 0.064 to 0.0643.

Going from GACTGAGC to CATCATAC, the “PBM E-score” value rises from -0.284 to 0.118.

Going from ATTATCGA to GGGGTCGA, the “PBM E-score” value rises from -0.00808 to -0.00594.

First: TGCTCAAA
Second: CCGCGGTA
The “PBM E-score” value of the first is lower: 0.0472 for the first, 0.178 for the second.

First: CAACGAGA
Second: GCTCTTAC
The “PBM E-score” value of the first is higher: 0.0833 for the first, -0.0495 for the second.

First: CTGGCATA
Second: TCTAGTCA
The “PBM E-score” value of the first is higher: 0.0265 for the first, -0.153 for the second.

Compared with CACCACGC, CAACGAGG is higher in “PBM E-score” value: -0.241 for the first, -0.114 for the second.

Compared with CATAAGCC, GAGGGTCA is lower in “PBM E-score” value: 0.0084 for the first, -0.0263 for the second.

First: GTACATGA
Second: CAGCCAGA
The “PBM E-score” value of the first is higher: -0.0043 for the first, -0.165 for the second.

Going from GAAAGCTC to AAAAGAGT, the “PBM E-score” value rises from -0.201 to 0.058.

Going from AGAGAGGC to CGTATGCA, the “PBM E-score” value rises from -0.312 to 0.0308.

Going from CCCATACG to CAATATTG, the “PBM E-score” value falls from -0.123 to -0.18.

First: AGATTCAA
Second: AATTGTCA
The “PBM E-score” value of the first is lower: 0.0763 for the first, 0.235 for the second.

First: CGGGGCCC
Second: TAGACAGA
The “PBM E-score” value of the first is higher: 0.0497 for the first, -0.06 for the second.

Going from ACCGATTG to AACATGCT, the “PBM E-score” value falls from 0.0921 to -0.0636.

Going from GTAACGAA to GTTCACAA, the “PBM E-score” value falls from 0.135 to 0.0531.

First: CCTTAGAA
Second: AAAATGCC
The “PBM E-score” value of the first is lower: -0.0361 for the first, 0.0197 for the second.

Going from CTTGATCC to AAATGGTA, the “PBM E-score” value rises from 0.0759 to 0.184.

First: AACCCGTA
Second: CTGAGCGC
The “PBM E-score” value of the first is higher: -0.155 for the first, -0.157 for the second.

Compared with AAGGAGTC, CTAGCATA is higher in “PBM E-score” value: -0.224 for the first, -0.126 for the second.

First: GATAACTA
Second: ATGGTTCA
The “PBM E-score” value of the first is lower: 0.0607 for the first, 0.177 for the second.

Compared with CGGAAGGA, ACTGATAC is higher in “PBM E-score” value: -0.0524 for the first, 0.038 for the second.

Compared with ATTGACAC, AAATCTGC is higher in “PBM E-score” value: 0.0216 for the first, 0.0398 for the second.

Going from GCTCGCCC to GAAGAGGC, the “PBM E-score” value falls from 0.0417 to -0.00355.

Compared with ATCCAACC, AGCGTAGG is lower in “PBM E-score” value: -0.0776 for the first, -0.118 for the second.

Going from GCGGTCCA to GAGGTCAA, the “PBM E-score” value rises from -0.265 to -0.0364.

Going from AAACCGGT to CCGGTTCA, the “PBM E-score” value falls from 0.0579 to -0.122.

First: CGTCCGGC
Second: AGACGGCT
The “PBM E-score” value of the first is higher: -0.0102 for the first, -0.178 for the second.

Going from GCCGGGTA to ACACTTGC, the “PBM E-score” value rises from -0.0426 to 0.0744.

Compared with GTATAACA, GGCGTGAC is lower in “PBM E-score” value: 0.0311 for the first, 0.00226 for the second.

Going from GATGCCGA to GCTGGAGA, the “PBM E-score” value falls from 0.12 to -0.152.

Compared with AACATCCT, CGAGCTAA is lower in “PBM E-score” value: 0.102 for the first, 0.00573 for the second.

Compared with AGGCCTAT, GCTAATGA is higher in “PBM E-score” value: -0.225 for the first, 0.0764 for the second.

Compared with GATGCAAA, GCTGAGAC is higher in “PBM E-score” value: 0.0604 for the first, 0.209 for the second.

Compared with ACATAAGC, GTGCACCA is lower in “PBM E-score” value: -0.0117 for the first, -0.1 for the second.

Going from CCATGATA to AGAGACCT, the “PBM E-score” value falls from 0.153 to -0.107.

First: ATACTCAG
Second: ATGGTCGC
The “PBM E-score” value of the first is lower: 0.086 for the first, 0.0953 for the second.

Compared with CATTGGCC, GGATATAA is higher in “PBM E-score” value: -0.212 for the first, 0.195 for the second.

Going from CCTACCCA to GCTAGGAC, the “PBM E-score” value falls from 0.0661 to -0.165.

Compared with TCCCTCAA, ACGTGTCG is higher in “PBM E-score” value: -0.116 for the first, -0.0544 for the second.

Compared with GATTCGGA, TGTTAACA is lower in “PBM E-score” value: 0.134 for the first, -0.00171 for the second.

First: ACTTTTAG
Second: CATCTAGA
The “PBM E-score” value of the first is higher: 0.101 for the first, -0.0143 for the second.

First: AGGTCGTC
Second: AATCACAT
The “PBM E-score” value of the first is higher: -0.0589 for the first, -0.0806 for the second.

Going from AAGTACTT to CAGATAGC, the “PBM E-score” value falls from 0.0324 to -0.131.

Going from GGCCGGGA to TACGTCTA, the “PBM E-score” value rises from -0.0864 to -0.0447.

Compared with GGTTCTTA, AGATCACT is lower in “PBM E-score” value: 0.139 for the first, 0.0283 for the second.

First: GCTGCGAA
Second: CGACACAA
The “PBM E-score” value of the first is lower: 0.06 for the first, 0.0706 for the second.

Going from ACACAGCC to CAGTTGAG, the “PBM E-score” value falls from 0.0129 to -0.132.

Compared with GCCTCGGA, ACACACAT is higher in “PBM E-score” value: -0.0162 for the first, 0.155 for the second.

Going from GACTCTCA to GAGAGCAC, the “PBM E-score” value falls from -0.0399 to -0.108.

Compared with GACAGTAC, CGAGAACC is higher in “PBM E-score” value: -0.101 for the first, 0.0434 for the second.

Going from CCCCTAGG to CTAAGAGA, the “PBM E-score” value rises from -0.254 to -0.059.

Compared with GTATGGTA, TATAGTCA is lower in “PBM E-score” value: 0.0197 for the first, -0.0254 for the second.

Going from CCAGACTC to AAGCTGAG, the “PBM E-score” value rises from -0.278 to -0.135.

Compared with GCTAGATA, GACACGCA is higher in “PBM E-score” value: -0.133 for the first, -0.0396 for the second.

Going from ACTAAAAG to AAGTTACG, the “PBM E-score” value falls from 0.1 to 0.0247.

Compared with GCAGAAAC, AGATCGCG is lower in “PBM E-score” value: 0.108 for the first, -0.154 for the second.

First: CCAGGACG
Second: GCAGGTCC
The “PBM E-score” value of the first is lower: -0.0827 for the first, -0.0337 for the second.

First: CCACGAAC
Second: ACATGACG
The “PBM E-score” value of the first is higher: 0.148 for the first, 0.0117 for the second.

Compared with ATTGTAAC, CAGGACCC is lower in “PBM E-score” value: 0.216 for the first, -0.155 for the second.

Going from CGCAGTGA to GTAGATAC, the “PBM E-score” value falls from 0.0576 to -0.00886.

Going from CACCACTA to CGCAATGC, the “PBM E-score” value falls from 0.0375 to -0.0676.

First: ACCACAGT
Second: ATGTTATG
The “PBM E-score” value of the first is lower: -0.0395 for the first, 0.103 for the second.

First: TCAAAGGA
Second: AAGACGGC
The “PBM E-score” value of the first is higher: 0.0313 for the first, -0.255 for the second.

Compared with GAGTGCAA, GAATCTAC is lower in “PBM E-score” value: 0.147 for the first, 0.0983 for the second.

Compared with CTTAGTTC, ACCGTTCT is lower in “PBM E-score” value: -0.0322 for the first, -0.0398 for the second.

First: CCCGTCGC
Second: AAACACCC
The “PBM E-score” value of the first is lower: -0.0127 for the first, 0.223 for the second.

Compared with ACGGAATA, ACGCCGGA is lower in “PBM E-score” value: 0.0471 for the first, 0.033 for the second.

Going from GTACGATA to AACGTTTA, the “PBM E-score” value falls from 0.0244 to 0.00807.

Compared with GCCACTCC, ATTCACAG is higher in “PBM E-score” value: -0.0101 for the first, 0.108 for the second.

Going from ATGAGAGG to AGCCCGTA, the “PBM E-score” value falls from -0.0785 to -0.159.

Going from ACGAAGAA to AGAGCTTG, the “PBM E-score” value falls from 0.0942 to 0.0151.

Going from AAATCCAC to GTTGCACA, the “PBM E-score” value falls from -0.0239 to -0.154.

Going from CCAACTGA to CGTCATAA, the “PBM E-score” value rises from -0.0284 to 0.143.

First: AAACATGT
Second: CCCCAAGG
The “PBM E-score” value of the first is higher: 0.301 for the first, -0.139 for the second.

Compared with CTGCTTCA, CAAAATTA is higher in “PBM E-score” value: -0.099 for the first, 0.247 for the second.

First: CGAATGAA
Second: CTTTTGCC
The “PBM E-score” value of the first is higher: 0.084 for the first, 0.035 for the second.

Compared with GGACAGCA, ATTTCCTG is higher in “PBM E-score” value: -0.198 for the first, 0.124 for the second.

Compared with GAGACCCC, CCAAGTAG is lower in “PBM E-score” value: -0.00992 for the first, -0.111 for the second.

Going from CCTGGTCG to CGAGATTC, the “PBM E-score” value rises from -0.228 to -0.0528.

Compared with CTGGCTGC, CGTCCCTA is lower in “PBM E-score” value: -0.11 for the first, -0.127 for the second.
